At least one peptide structure holds a part that was inferred or is arguable (an end, a ring closure or a residue). Bridge positions count the residues as written; N and C are the ends. Square brackets hold non-standard residues; d marks the D form. Peptide text beside a SMILES is read from it. * marks the point of attachment. Heptanoyl(6-Me) = CC(C)CCCCC(=O)*; Octanoyl = CCCCCCCC(=O)*; Dab = NCC[C@H](N)C(=O)O; Abu = CC[C@H](N)C(=O)O
Assays:
E. coli IH3080 [1] = test: Growth inhibition around wells on LB agar plates; type: cell-based, Escherichia coli; details: 18 h at 37°C; for Antibacterial activity at 4 µg: growth inhibition area around a well containing 4 µg of compound; for Antibacterial activity at 10 µg: growth inhibition area around a well containing 10 µg of compound
Protocol: Peptides synthesized in Example 1, all carrying at least two (2) but not more than three (3) positive charges, were studied for their ability to inhibit the growth of E. coli. This was tested employing LB agar (LB Agar Lennox, Difco, BD, Sparks, MD, U.S.A) plates. The indicator organism E. coli IH3080 (K1:O18) was an encapsulated strain originally isolated from a neonate suffering from meningitis (Vaara et al. 1984) and obtained from National Public Health Institute, Helsinki, Finland.
(§1) From an overnight-grown culture of IH3080 on LB agar, a suspension of approx. 10^8 cells/ml was prepared in 0.9% NaCl. Aliquots of this suspension were then pipetted on the agar plates and the plates were gently shaken to spread the suspension evenly on the entire surface of the plate. Thereafter, the unabsorbed part of the suspension was removed by using a Pasteur pipette. After the surface had dried, small wells (diameter, 2 mm) were drilled on the plates (five wells per plate) by using a sterile sharp-edged narrow metal tube, single-use pipette tip, and vacuum suction. […] Controls included 0.9% NaCl solution without the compound to be tested. The plates were then incubated for 18 h at 37°C whereafter the diameters of growth inhibition zones around each well were measured; the diameter of the well itself was […]. Finally, the diameters were converted to surface areas of growth inhibition (in square mm).

E. coli IH3080 [2] = test: Growth inhibition around wells on LB plates containing rifampin (sensitization); type: cell-based, Escherichia coli; details: for Antibacterial activity in the presence of rifampin concn (µg/ml) of 0: plates with no rifampin; for Antibacterial activity in the presence of rifampin concn (µg/ml) of 0.1: rifampin 0.1 µg/ml; for Antibacterial activity in the presence of rifampin concn (µg/ml) of 1.0: rifampin 1.0 µg/ml
Protocol: as §1, with “mm). […] Louis, MO, U.S.A).” for “mm).”

[3] = system: Ps. aeruginosa ATCC 27853; test: Growth inhibition around wells on LB agar plates; type: cell-based, Pseudomonas aeruginosa
Protocol: From an overnight-grown culture of IH3080 on LB agar, a suspension of approx. 10^8 cells/ml was prepared in 0.9% NaCl. Aliquots of this suspension were then pipetted on the agar plates and the plates were gently shaken to spread the suspension evenly on the entire surface of the plate. Thereafter, the unabsorbed part of the suspension was removed by using a Pasteur pipette. After the surface had dried, small wells (diameter, 2 mm) were drilled on the plates (five wells per plate) by using a sterile sharp-edged narrow metal tube, single-use pipette tip, and vacuum suction. Samples (4 µl and 10 µl) of the peptide solution in 0.9% NaCl (at concentrations of 1 µg/ml and 0.1 µg/ml) were then pipetted to the wells and the sample fluids were allowed to absorb. Controls included 0.9% NaCl solution without the compound to be tested. The plates were then incubated for 18 h at 37°C whereafter the diameters of growth inhibition zones around each well were measured; the diameter of the well itself was […]. Finally, the diameters were converted to surface areas of growth inhibition (in square mm).
Direct antibacterial activity of twelve NAB compounds against Acinetobacter baumannii ATCC 19606 and Pseudomonas aeruginosa ATCC 27853 was tested by using the susceptibility determination method described in Example 2. Five compounds (NAB7062, NAB734, NAB737, NAB739, and NAB740) had notable activity against A. baumannii. […] The antibacterial activity of NAB739 and NAB740 were as strong as or even stronger than that of polymyxin B.

[4] = system: Ps. aeruginosa ATCC 27853; test: Growth inhibition around wells on LB plates containing rifampin (sensitization); type: cell-based, Pseudomonas aeruginosa; details: well containing 4 µg
[5] = well containing 4 µg of compound

| SMILES | Antibacterial activity at 4 µg (E. coli IH3080 [1]) [square millimeters] | Antibacterial activity at 10 µg (E. coli IH3080 [1]) [square millimeters] | Antibacterial activity in the presence of rifampin concn (µg/ml) of 0 (E. coli IH3080 [2]; [5]) [square millimeters] | Antibacterial activity in the presence of rifampin concn (µg/ml) of 0.1 (E. coli IH3080 [2]; [5]) [square millimeters] | Antibacterial activity in the presence of rifampin concn (µg/ml) of 1.0 (E. coli IH3080 [2]; [5]) [square millimeters] | Antibacterial activity in the presence of rifampin concn (µg/ml) of 1.0 (E. coli IH3080 [2]; well containing 10 µg of the compound) [square millimeters] | Antibacterial activity 4 µg ([3]; growth inhibition area around a well containing 4 µg) [square millimeters] | Antibacterial activity 10 µg ([3]; growth inhibition area around a well containing 10 µg) [square millimeters] | Antibacterial activity, rifampin 0 ([4]; no rifampin (control)) [square millimeters] | Antibacterial activity, rifampin 0.1 ([4]; rifampin 0.1 µg/ml) [square millimeters] | Antibacterial activity, rifampin 0.3 ([4]; rifampin 0.3 µg/ml) [square millimeters] |
| --- | --- | --- | --- | --- | --- | --- | --- | --- | --- | --- | --- |
| CC[C@@H]1NC(=O)[C@H](CC(C)C)NC(=O)[C@@H](Cc2ccccc2)NC(=O)[C@H](CC)NC(=O)[C@@H](NC(=O)[C@H](CCN)NC(=O)[C@@H](NC(=O)[C@H](CCN)NC(=O)CCCCC(C)C)[C@@H](C)O)CCNC(=O)[C@H]([C@@H](C)O)NC(=O)[C@H](CC)NC1=O [NAB 722] ({Heptanoyl(6-Me)}-[Dab]T[Dab][Dab][Abu][dF]L[Abu][Abu]T; lactam 4-C) | 0 | 0 | 0 | 0 | 0 | – | – | – | – | – | – |
| CCCCCCCC(=O)N[C@@H](CCN)C(=O)N[C@H](C(=O)N[C@@H](CCN)C(=O)N[C@H]1CCNC(=O)[C@H]([C@@H](C)O)NC(=O)[C@H](CC)NC(=O)[C@H](CCN)NC(=O)[C@H](CC(C)C)NC(=O)[C@@H](Cc2ccccc2)NC(=O)[C@H](CC)NC1=O)[C@@H](C)O [NAB 725] (Octanoyl-[Dab]T[Dab][Dab][Abu][dF]L[Dab][Abu]T; lactam 4-C) | 0 | 0 | 0 | 0 | 0 | – | – | – | – | – | – |
| CCCCCCCC(=O)N[C@@H](CCN)C(=O)N[C@H](C(=O)N[C@@H](CCN)C(=O)N[C@H]1CCNC(=O)[C@H]([C@@H](C)O)NC(=O)[C@H](CCN)NC(=O)[C@H](CC)NC(=O)[C@H](CC(C)C)NC(=O)[C@@H](Cc2ccccc2)NC(=O)[C@H](CC)NC1=O)[C@@H](C)O [NAB 726] (Octanoyl-[Dab]T[Dab][Dab][Abu][dF]L[Abu][Dab]T; lactam 4-C) | 0 | 0 | 0 | 0 | 0 | – | – | – | – | – | – |
| CCCCCCCC(=O)N[C@H](C(=O)N[C@@H](CC)C(=O)N[C@H]1CCNC(=O)[C@H]([C@@H](C)O)NC(=O)[C@H](CCN)NC(=O)[C@H](CCN)NC(=O)[C@H](CC(C)C)NC(=O)[C@@H](Cc2ccccc2)NC(=O)[C@H](CCCCN)NC1=O)[C@@H](C)O [NAB 731] (Octanoyl-T[Abu][Dab]K[dF]L[Dab][Dab]T; lactam 3-C) | 0 | 0 | 0 | 0 | 5 | 22 | – | – | – | – | – |
| CCCCCCCC(=O)N[C@H](C)C(=O)N[C@H](C)C(=O)N[C@H]1CCNC(=O)[C@H]([C@@H](C)O)NC(=O)[C@H](CCN)NC(=O)[C@H](CCN)NC(=O)[C@H](CC(C)C)NC(=O)[C@@H](Cc2ccccc2)NC(=O)[C@H](CCN)NC1=O [NAB 733, OA-DAla-DAla-cy[Dab-Dab-DPhe-Leu-Dab-Dab-Thr-]] (Octanoyl-[dA][dA][Dab][Dab][dF]L[Dab][Dab]T; lactam 3-C) | 0 | 0 | 0 | 95 | 113 | – | – | – | – | – | – |
| CCCCCCCC(=O)N[C@@H](CCN)C(=O)N[C@@H](CCN)C(=O)N[C@@H](CCN)C(=O)N[C@H]1CCNC(=O)[C@H]([C@@H](C)O)NC(=O)[C@H](CC)NC(=O)[C@H](CC)NC(=O)[C@H](CC(C)C)NC(=O)[C@@H](Cc2ccccc2)NC(=O)[C@H](CC)NC1=O [NAB 735] (Octanoyl-[Dab][Dab][Dab][Dab][Abu][dF]L[Abu][Abu]T; lactam 4-C) | 0 | 0 | 0 | 0 | 0 | – | – | – | – | – | – |
| CCCCCCCC(=O)N[C@H]1CCNC(=O)[C@H]([C@@H](C)O)NC(=O)[C@H](CCN)NC(=O)[C@H](CCN)NC(=O)[C@H](CC(C)C)NC(=O)[C@@H](Cc2ccccc2)NC(=O)[C@H](CCN)NC1=O [Octanoyl PMBH, octanoyl polymyxin B heptapeptide, reference compound] (Octanoyl-[Dab][Dab][dF]L[Dab][Dab]T; lactam 1-C) | 0 | 0 | 0 | 0 | 38 | – | 0 | 13 | 0 | 13 | 13 |
| CC(C)C[C@@H]1NC(=O)[C@@H](Cc2ccccc2)NC(=O)[C@H](CCN)NC(=O)[C@@H](N)CCNC(=O)[C@H]([C@@H](C)O)NC(=O)[C@H](CCN)NC(=O)[C@H](CCN)NC1=O [Polymyxin B heptapeptide, reference compound] (H-[Dab][Dab][dF]L[Dab][Dab]T; lactam 1-C) | 0 | 0 | 0 | 0 | 38 | – | – | – | – | – | – |
